PMC4336329 (PLoS ONE, 2015)
In all, about 310,000 compounds went through this assay and about 2,200 (0.71%) showed an effect of 50% or more. Effects have a minus sign here. Some of the results follow.

Target: human ether-à-go-go-related gene (hERG) potassium channel (human, UniProt Q12809)
Assay: primary screen, population patch clamp on CHO cells stably expressing hERG

human ether-à-go-go-related gene (hERG) potassium channel, sequence (Q12809 whole entry, looked up): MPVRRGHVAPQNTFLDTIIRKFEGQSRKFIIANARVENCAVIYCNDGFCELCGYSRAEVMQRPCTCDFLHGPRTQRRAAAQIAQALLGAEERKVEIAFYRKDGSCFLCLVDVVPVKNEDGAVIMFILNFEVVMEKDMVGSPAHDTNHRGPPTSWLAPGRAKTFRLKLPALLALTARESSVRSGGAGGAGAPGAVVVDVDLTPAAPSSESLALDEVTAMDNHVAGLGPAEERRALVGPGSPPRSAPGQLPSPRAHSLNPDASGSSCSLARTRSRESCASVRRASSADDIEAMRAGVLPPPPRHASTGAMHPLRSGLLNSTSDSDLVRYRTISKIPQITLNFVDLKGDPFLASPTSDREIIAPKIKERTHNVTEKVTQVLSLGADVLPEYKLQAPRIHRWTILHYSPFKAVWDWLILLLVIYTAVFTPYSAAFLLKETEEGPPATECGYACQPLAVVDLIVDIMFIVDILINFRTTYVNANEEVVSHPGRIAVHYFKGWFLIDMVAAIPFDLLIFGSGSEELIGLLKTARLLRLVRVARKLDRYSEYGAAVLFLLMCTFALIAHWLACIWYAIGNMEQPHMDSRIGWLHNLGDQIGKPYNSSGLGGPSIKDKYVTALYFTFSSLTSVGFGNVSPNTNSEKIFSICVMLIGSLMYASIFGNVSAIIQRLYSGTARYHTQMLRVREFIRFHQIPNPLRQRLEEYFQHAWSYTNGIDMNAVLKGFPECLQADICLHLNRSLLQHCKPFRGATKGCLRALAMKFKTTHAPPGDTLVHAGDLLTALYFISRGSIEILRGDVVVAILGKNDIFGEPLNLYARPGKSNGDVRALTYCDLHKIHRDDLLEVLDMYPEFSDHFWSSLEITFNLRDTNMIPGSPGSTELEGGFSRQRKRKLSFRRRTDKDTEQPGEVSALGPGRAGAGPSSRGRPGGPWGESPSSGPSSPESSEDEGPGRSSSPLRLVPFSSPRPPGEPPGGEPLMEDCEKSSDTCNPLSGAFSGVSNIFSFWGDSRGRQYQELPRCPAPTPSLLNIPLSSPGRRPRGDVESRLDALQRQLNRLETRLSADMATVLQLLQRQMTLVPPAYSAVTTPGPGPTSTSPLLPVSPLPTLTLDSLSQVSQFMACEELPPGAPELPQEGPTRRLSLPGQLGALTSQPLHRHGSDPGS

Compound	hERG current change (%, negative = inhibition) at 1uM [%]
OC(CNCC1CCCO1)Cn1c2ccc(Br)cc2c2cc(Br)ccc21 (centres unmarked)	10.6
CCOC(=O)N1CCC(NCCNC(=O)c2ccc(F)c(F)c2)CC1.Cl	2.78
CC(=O)c1c(OC(=O)c2ccccc2)ccnc1C(F)(F)F	-4.82
CN(C(=O)CSc1nc2ccccc2n1C)C1CCS(=O)(=O)C1 (centres unmarked)	6.95
Cc1cccc(N2C(=O)NC(=O)/C(=C/c3ccc([N+](=O)[O-])o3)C2=O)c1	8.27
Cc1c(NC(=O)C(C)Sc2ncnc3ccccc23)c(=O)n(-c2ccccc2)n1C (centres unmarked)	6
O=[N+]([O-])c1ccccc1OCc1nc(-c2cccs2)no1	26.5
Cc1ccc(NC(=O)c2ccncc2)cc1[N+](=O)[O-]	11.2
CCc1ccc(NC(=O)c2ccc(NC(=O)C3CCCO3)cc2)cc1 (centres unmarked)	15
CCOc1ccccc1NC(=O)[C@@H](NC(=O)c1ccccc1F)C(C)C	5.49
Cc1sc(NC(=O)CN2CCOCC2)c(C(=O)c2ccccc2)c1C	2.49
O=C(O)C1CC(=O)N(c2ccc(F)c(F)c2)C1 (centres unmarked)	13.9
CSC(C(=O)c1cc2ccccc2o1)c1ccccc1 (centres unmarked)	9.71
COc1cccc(CNC(=O)c2ccc(C)c(S(=O)(=O)N3CCCCC3)c2)c1	5.48
Cc1oc2c(CN3CCC(C)CC3)c(O)ccc2c(=O)c1-c1ccccc1	-0.462
Cc1ccc(CN2CCN(/N=C/c3ccc(Cl)c([N+](=O)[O-])c3)CC2)cc1	6.85
COc1ccccc1Oc1ccc(S(=O)(=O)N2CCCC2)cc1	-0.125
COc1cc(/C=N/NC(=O)COc2ccccc2[N+](=O)[O-])ccc1OC(=O)c1ccco1	5.43
Cc1ccc(N(CC(=O)NC(C)(C)C)C(=O)CS(=O)CC(=O)Nc2ccc3c(c2)OCO3)cc1 (centres unmarked)	10.2
COc1ccc(C(C)=O)cc1COc1cccc2cccnc12	9.4
Cc1cc(=O)oc2c3c(cc(OCC(=O)NCc4cccnc4)c12)OC(C)(C)CC3	3.62
S=C(Nc1ccc(Cl)c(Cl)c1)N1CCCC1	8.19
Cl.Oc1ccc(Nc2ncnc3ccccc23)cc1	13.9

Compound	hERG current change (%, negative = inhibition) at 1uM [%]
CN(C)CCNC(NC(=O)c1cccs1)C(Cl)(Cl)Cl (centres unmarked)	7.35
CCc1noc(C)c1C(=O)NCCc1ccc(OC)c(OC)c1	0.92
CCCCn1c(N)c(C(=O)NCCN2CCOCC2)c2nc3ccccc3nc21	-21
O=C(CSc1nnc(-c2ccncc2)n1Cc1ccco1)Nc1nc(-c2ccccc2)cs1	5.46
Cc1ccc2[nH]c(=O)c(CN(Cc3cccnc3)C(=S)NCCCN(C)C)cc2c1	7.19
Cc1[nH]c2ccccc2c1/C=N/NC(=O)c1ccccc1	13.7
CCn1c(N2CCC(C)CC2)nc2c1c(=O)n(C)c(=O)n2C	12.7
O=C(CC1CCCCC1)NCc1ccco1	7.39
COc1ccccc1/C=C1\C(=O)Nc2ccccc21	9.18
COc1ccc(OC(C)C(=O)Nc2ccc([N+](=O)[O-])cc2)cc1 (centres unmarked)	17.5
O=C(Nc1cccc(S(=O)(=O)N2CCCCC2)c1)c1c2c(nc3ccccc13)CCN(Cc1ccccc1)C2	23.6
Cc1cc(S(=O)(=O)Nc2ccc(C(=O)N3CC(C)OC(C)C3)cc2)ccc1F (centres unmarked)	1.62
COc1cc(/C=N/NC(=O)Nc2ccccc2)ccc1OC(C)=O	10.8
O=C(Cn1cc2c(n1)CCCCC2)N1CCCCC1	9.12
CCCc1nc(NCc2ccco2)c(C#N)c2c1COC(C)(C)C2	7.18
c1ccc(CNC2=NCCS2)cc1	17.9
C/C(=N\NC(=O)c1ccc(NS(=O)(=O)c2cccs2)cc1)c1ccc2ccccc2c1	9.89
C/C(=N\NC(=O)C(N)=O)c1ccc(Br)cc1	7.04
O=S(=O)(c1cc(C(F)(F)F)ccc1Cl)N1CCCCCC1	6.28
O=C1CC(c2ccc(F)cc2)CC(O)=C1C=NCCN1CCNCC1 (centres unmarked)	7.81
CCC(C)Nc1nc2ccccc2n2c(C)nnc12 (centres unmarked)	0.413
COc1cccc(C(=O)CC(=O)C(=O)Nc2cc(OC)c(OC)c(OC)c2)c1	5.64
Cc1ccccc1N(C(=O)c1csnn1)C(C(=O)NC1CCCCC1)c1ccncc1 (centres unmarked)	16

Compound	hERG current change (%, negative = inhibition) at 1uM [%]
CCOC(=O)Cn1cc(C=C2C(=O)N(C)C(=O)N(C)C2=O)c2ccccc21	7.84
O=C(COC(=O)CNC(=O)c1cccs1)Nc1ccccc1C(F)(F)F	18.1
Cc1cccc(NC(=O)C2CCCN(S(=O)(=O)c3cccc4nsnc34)C2)n1 (centres unmarked)	-2.04
CCOC(=O)c1[nH]c(C)c(/C(O)=C2\C(=O)C(=O)N(CCN3CCOCC3)C2c2ccco2)c1C (centres unmarked)	8.62
CNC(=S)NC1CC2CCCC(C1)N2CC(C)C (centres unmarked)	8.21
CCCn1c(C(C)Nc2nc(-c3ccc(C)cc3)cs2)nc2cc(Cl)c(Cl)cc21 (centres unmarked)	1.41
CN(C)C(CNC(=O)CN1C(=O)NC2(CCc3ccccc32)C1=O)c1ccco1 (centres unmarked)	19
N#Cc1ccccc1S(=O)(=O)N1CCN(CC(O)COc2ccccc2F)CC1.O=C(O)C(=O)O (centres unmarked)	11.2
COc1ccc(OC)c(NC(=O)CN(C)CC(=O)Nc2ccccc2Br)c1	2.84
CC(CCOC1=NS(=O)(=O)c2ccccc21)NC(=O)C(=O)Nc1ccccc1 (centres unmarked)	11.9
O=C(COC(=O)C1COc2ccccc2O1)Nc1cccc(S(=O)(=O)N2CCCCC2)c1 (centres unmarked)	0.759
O=S(=O)(Nc1ncccn1)c1cc(Cl)ccc1Cl	10.5
COc1ccccc1N1CCN(C(=O)c2ccc3c(=O)n(Cc4ccco4)c(=S)[nH]c3c2)CC1	-12.2
CC1CCCCC1NC(=O)Cn1c(CN2CCCCC2)nc2ccccc2c1=O (centres unmarked)	5
O=S(=O)(NCCN1CCOCC1)c1ccc(-c2ccc(S(=O)(=O)NCCN3CCOCC3)cc2)cc1	20.9
COCc1cc(=O)[nH]c(Nc2nc3ccc(C)cc3o2)n1	9.6
O=C(CN1C(=O)C2C3C=CC(C4CC34)C2C1=O)NCc1ccco1 (centres unmarked)	8.58
Clc1ccccc1SCc1nc2ccccc2[nH]1	6.88
O=C(c1ccccc1-c1nc2ccccc2[nH]1)N1CCOCC1	4.53
C/C(=N\Nc1ccc(S(=O)(=O)Nc2ccccc2)cc1[N+](=O)[O-])c1ccc(N2CCOCC2)cc1	-0.924
CCOc1ncccc1C(=O)OCC(=O)Nc1ncc(C(F)(F)F)cc1Cl	10.8
CCc1cccc(NC(=O)CN(C)S(=O)(=O)c2cccc3cccnc23)c1	1.12
O=C(NC1CC1)c1cccc(S(=O)(=O)N2CCOCC2)c1	11.9

Compound	hERG current change (%, negative = inhibition) at 1uM [%]
CCN(CC(=O)Nc1ccccc1C(F)(F)F)CC(=O)NC1CC1	15
C=CCN(CC=C)C(=O)c1cccc(OC2CCN(S(=O)(=O)N(C)C)CC2)c1	12.5
CC(=O)Nc1nonc1NC(=O)c1ccc(C(C)(C)C)cc1	-3.61
CCCNC(=O)CN1C(=O)NC(CC)(c2ccc(F)cc2)C1=O (centres unmarked)	13.8
CN(C)/C=C(\C=[N+](C)C)c1[nH]ncc1[N+](=O)[O-].[O-][Cl+3]([O-])([O-])[O-]	8.38
C=CCn1c(-c2cnn(-c3ccccc3)c2N)n[nH]c1=S	18
C/C(=N\OC(=O)NC(C)C)c1sc(-c2ccc(Cl)cc2)nc1C	-5.86
COc1cc2c(C#N)c(N3CCN(c4ccccc4OC)CC3)nc(N)c2c(N)n1	9.28
CN(C)S(=O)(=O)N1CCC(Cc2ccccc2)CC1	-0.452
CN1CCN(C(=O)c2ccc(CN3CCOCC3)cc2)CC1	12
CC(=O)Nc1nnc(C2=COCCO2)o1	10.9
CC1=CC(C)(C)N(S(=O)(=O)c2ccc(C)cc2)c2cc(C)ccc21	11.6
Cc1c(NC(=O)OCCNC(=O)COc2c(Cl)cccc2Cl)sc(=S)n1C	-9.75
Cc1ccc(C)c(NC(=O)C(Sc2nc3ccc(C)cc3[nH]2)c2ccccc2)c1 (centres unmarked)	-1.07
CCOC(=O)c1cnc(SSc2ncc(C(=O)OCC)c(N)n2)nc1N	16.7
COC(=O)/C=C1\SC(=Nc2ccc(OC)cc2)NC1=O	8.79
Cc1nn(Cc2ccccc2)c(C)c1C(=O)OCC(=O)Nc1cc(S(C)(=O)=O)ccc1Cl	2.83
Cc1cccc(/C(N)=N/OC(=O)COc2ccccc2Cl)c1	9.81
COc1ccc(NC(=O)CCC(=O)N2CCCC2)c([N+](=O)[O-])c1	4.02
Cc1ccc(-c2n[nH]c(=S)n2C)cc1Cl	8.5
